Data reported in the RNAGym collection of RNA variant scans (doi:10.1101/gad.245936.114).
Variants at the floor of the assay are shown more often than the library holds them.

B1: tRNA (parent)
chain: CUCUCGGUAGCCAAGUUGGUUUAAGGCGCAAGACUUUAAUUUAUCACUACGAAAUCUUGAGAUCGGGCGUUCGACUCGCCCCCGGGAGAUUUUUUCCUCGAGCAA

Variants of: B1
Experiment: nonsense suppression (GFP-seq) (ratio to wild type); higher = more function; SUP4oc tRNA, yeast GFP reporter sort-seq
Method in brief: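 Nonsense suppression (GFPSEQ) is the median GFP/RFP ratio of each sorting bin, weighted by the variant's estimated share of cells in that bin and expressed relative to the unmutated parent tRNA. Yeast strains carried genome-integrated variants of an ochre-suppressor tRNA from a library with ~3% random mutations, plus a galactose-driven GFP ochre reporter and RFP, and were grown in raffinose/galactose medium containing 80 mg/L adenine. Cells were sorted into GFP/RFP bins, each bin was Illumina-sequenced (phred ≥30), and variants were kept only with ≥100 reads and ≥30 cells.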

Nonsense suppression, ≤ 0.026:
CUCUCGCUAGCCAAGUUGGUUUAAGGCGCAAGACUUUAAUUUAUCACUACGAAAUCUUGAGAUCGGGCGUUCGACUCGCCCUCGGGAGAUUUUUUCCUCGAGCAA [G7C C82U]
CUCUCGCUAGCCAAUUUGGUUUAAGGCGCAAGACUUUAAUUUAUCACUACGAAAUCUUGAGAUCGGGCGUUCGACUCGCCCCCGGAAGAUUUUUUCCUCGAGCAA [G7C G15U G86A]
CUCUCGCUAGCCAAGUUGGUUUAAGGCGCAAGACUUUAAUUUAUCACUACGAAAGCUUUAGAUCGGGCGUUCGACUCGCCCCCGGGAGAUUUUUUCCUCGAGCAA [G7C U55G G59U]
CUCUCGCUAGCCAAGUUGGUUUAAGGCGCAAGACUUUAAUUUAUCACUACGAAAUCAUGAUAUCGGGCGUUCGACUCGCCCCCGGGAGAUUUUUUCCUCGAGCAA [G7C U57A G61U]
CUCUCGCUAUCCAAGUUGGUUUAAGGCGCAAGACUUUAAUUUAUCACUACGAAAUCUUGAGAUCGGGCGUUCGACUCGCCCCCGGGAGAUUUUUUCCUCGAGCAA [G7C G10U]
CUCUCGCUAGCCAAGUUGGUUUAAGGCGCAAGACUUUAAUUUAUCACUACGAAAUCUUGAGAUCGGGCGUUCGACUCGCCCCCGUGAGAUUUUUUCCUCGAGCAA [G7C G85U]
CUCUCGCUAGCCAAGUUGGUUUAAGGCGCAAGACUUUAAUUUAUCACUACGAAAUCUUGAGAUCGGGCGGUCGACUCGCCCCCGGGAGAUUUUUUCCUCGAGCAA [G7C U70G]
CUCUCGCUAGCCAAGUUGGUUUAAGGCGCAAGACUUUAAUUUAUCACUACGAAAUCUUGAGAUCGGGCGAUCGACUCGCCCCCGGGAGAUUUUUUCCUCGAGCAA [G7C U70A]
CUCUCGCUAGCCAAGUUGGUUUAAGGCGCAAGACUUUAAUUUAUCACUACGAAAUCUUGAGAUCGGACGUUCGACUCGCCCCCGGGAGAUUUUUUCCUCGAGCAA [G7C G67A]
CUCUCGCUAGCCAAGUUGGUUUAAGGCGCAAGACUUUAAUUUAUCACUACGAAAUCUUGAGAUCGGGCGUUCGACCCGCCCCCGGGAGAUUUUUUCCUCGAGCAA [G7C U76C]
CUCUCGCUAGCCAAGUAGGUUUAAGGCGCAAGACUUUAAUUUAUCACUACGAAAUCUUGAGAUCGGGCGUUCGACUCGCCCCCGGGAGAUUUUUUCCUCGAGCAA [G7C U17A]
CUCUCGCUAGCCAAGUCGGUUUAAGGCGCAAGACUUUAAUUUAUCACUACGAAAUCUUGAGAUCGGGCGUUCGACUCGCCCCCGGGAGAUUUUUUCCUCGAGCAA [G7C U17C]
CUCUCGCUAGCCAAGUUGGUUGAAGGCGCAAGACUUUAAUUUAUCACUACGAAAUCUUGAGAUCGGGCAUUCGACUCGCCCCCGGGAGAUUUUUUCCUCGAGCAA [G7C U22G G69A]
CUCUCGCUAGCCAAGUUGGUUUAAGGCGGGAGACUUUAAUUUAUCACUACGAAAUCUUGAUAUCGGGCGCUCGACUCGCCCCCGCGAGAUUUUUUCCUCGAGCAA [G7C C29G A30G G61U U70C G85C]
CUCUCGCUAGCCAAGUUGGUUUAAGGCGCAAGACUUUAAUUUAUCACUACGAAAUCUUGAGAUCGGGCGUUCGACUCUCCCCCGGGAGAUUUUUUCCUCGAGCAA [G7C G78U]
CUCUCGCUAGCCAAGUUGGUUUAAGGCGCAAGACUUUAAUUUAUCACUACGAAAUCUUGAGAUCGGGCUUUCGACUCGCGCCCGGGAGAUUUUUUCCUCGAGCAA [G7C G69U C80G]
CUCUCGCUAGCCAAGUUGGUUCAAGACGCAAGACUUUAAUUUAUCACUACGAAAUCUUGAGAUCGGGCGUUCGACUCGCCCCCGGGAGAUUUUUUCCUCGAGCAA [G7C U22C G26A]
CUCUCGCUAGCCAAGUUUGGUUAAGGCGCCAGACUUUAAUUUAUCACUACGAAAUCUUGAGAUCGGGCGUUCGACUCGCCCCCGGGCGAUUUUUUCCUCGAGCAA [G7C G18U U20G A30C A87C]
CUCUCGCUAGCCAAGUUGGUUUAAGGCGCAAGACGUUAAUUUAUCACUACGAAAUCUUGAGAUCGGGCGUUCGACUCGCCCCCGGGAGAUUUUUUCCUCGAGCAA [G7C U35G]
CUCUCGCUAGCCAAGUUGGUUUAAGGCGCAAGACGUUAAUUUAUCACUACGAAAUCUUGAGCUCGGGCGUUCGACUCGCCCCCGGGAGAUUUUUUCCUCGAGCAA [G7C U35G A62C]
CUCUCGCUAGCCAAGUUGGUUUAAGGCGCAAGACUUUAAUUUAUCACUACGAAAUCCGGAGAUCGGGCGUCCGACUCGCCCCCGGGAGAUUUUUUCCUCGAGCAA [G7C U57C U58G U71C]
CUCUCGUUAGCCAAGUUGGUUUAAGGCGCAAGACUUUAAUUUAUCACUACGAAAUCUUGAGAUCGGGCGUUCGACUCGCCCCCGGGAGAUUUUUUCCUCGAGCAA [G7U]
CUCUCGCUAGCCAAGUUGGUUUAAGGCGCAAUACUUUAAUUUAUCACUACGAAAUCUUGAGAUCGGGCGUUCGACUCGCCCCCGGGAGAUUUUUUCCUCGAGCAA [G7C G32U]
CUCUCGCUAGCCAAGUUGGUUUAAGGCGCAAGACUUUAAUUUAUCACUACGAAAUCUUGAGAUCGGGCGUUCGACUCGCGCCCGGGAGAUUUUUUCCUCGAGCAA [G7C C80G]
CUCUCGCUAGCCAAGGUGGUUUAAGGCGCAAGAUUUUAAUUUAUCACUACGAAAUCUUGAGAACGGGCGUUCGAAUCGCCCCCGGGAGCUUUUUUCCUCGAGCAA [G7C U16G C34U U63A C75A A89C]
CUCUCGCUAGCCAAGUUGGGUUAUGGCGCAAGGCUUUAAUUUAUCACUACGAAAUCUUGAGAUCGGGCGUUCGACUCGCCCCCGGGACAUUUUUUCCUCGAGCAA [G7C U20G A24U A33G G88C]
CUCUCGUUUGCCAAGUUGGUUUAAGGCGCAAGACUUUAAUUUAUCACUACGAAAUCUUGAGAUCGGGCGUUCGACUCACCCCCGGGAGAUUUUUUCCUCGAGCAA [G7U A9U G78A]
CUCUCGCUAGCCAAGUUGGUUUAAGGCGCAAGACUUUAAUUUAUCACUACGAAAUCAUGAGAUCCGGCAUUCGACUCGCCCCCGGGAGAUUUUUUCCUCGAGCAA [G7C U57A G65C G69A]
CUCUCGCUAGCCAAGUUGGUUUAAGUCGCAAGACUUUAAUUUAUCACUACGAAAUCUUGAGAUCGGGCGUUCGACUCGCCCCCGGGAGAUUUUUUCCUCGAGCAA [G7C G26U]
CUCUCGCUAGCCAAAUUGGUUUAACGCGCAAGACUUUAAUUUAUCACUACGAAAUCUUGAGAUCGGGCGGUCGACUCGCCCCCGGGAGAUUUUUUCCUCGAGCAA [G7C G15A G25C U70G]
CUCUCGCUAGCCAAGUUGGUUUAAGGCGCAAGAUUUUAAUUUAUCACUACGAAAUCUUGAGAUCGGGCGUUCGACCCGCCCCCGGGAGCUUUUUUCCUCGAGCAA [G7C C34U U76C A89C]
CUCUCGCUAGCCAAGUUGGUUUAAGGCGCAAGACUUUAAUUUAUCACUACGAAAUCUUGAGAUCGGGCGUUCGACGCGCCCCCGGUAGAUUUUUUCCUCGAGCAA [G7C U76G G86U]
CUCUCGCUAGCCAAGUUGGUUUAAGGCACAAGACUUUAAUUUAUCACUACGAAAUCUUGAGAUCGGGCGUUCGACUCGCACCCGGGAGAUUUUUUCCUCGAGCAA [G7C G28A C80A]
CUCUCGUUCGCCAAGUUGGUUUGAGGCGCAAGACUUUAAUUUAUCACUACGAAAUCUUGAGAUCGGGCGUUCGACUCGCCCCCGGGAGAUUUUUUCCUCGAGCAA [G7U A9C A23G]
CUCUCGCUACCCAAGUUGGUUUAAGGCGCAAGCCUUUAAUUUAUCACUACGAAAUCUUGAGAUCGGGCGUUCGAAUCGCCCCCGGGAGAUUUUUUCCUCGAGCAA [G7C G10C A33C C75A]
CUCUCGCUAGCCAAGUUGGUUUAAGGCGCAAGACUUUAAUUUAUCACUACGAAAUCAUGAGAUCGGGCGUUCGAAUCGCCCCCGGGAGAUUUUUUCCUCGAGCAA [G7C U57A C75A]
CUCUCGCUAGCCAAGUUGGUUUAAGGUGAAAGACUUUAAUUUAUCACUACGAAAUCUUGAGAUCGGGCGUUCGGCUCGCCCCCGGGAGAUUUUUUCCUCGAGCAA [G7C C27U C29A A74G]
CUCUCGCUAGCCAAGUUGGUUUAAGGAGCAAGACUUUAAUUUAUCACUACGAAAUCUUUAGAUCGGGCGUUCGACUCGACCCCGGGAGAUUUUUUCCUCGAGCAA [G7C C27A G59U C79A]
CUCUCGCUAGCCAAGUUGGUUUAAGGCGAAAGACUUUAAUUUAUCACUACGAAAUCUUGAGAUCGGGCGUUCGACUCGCCCCCGGGAGUUUUUUUCCUCGAGCAA [G7C C29A A89U]
CUCUCGCUAGCCAAGUUGGUUGAAGGCGCAAGACUUUAAUUUAUCACUACGAAACCUUGAGAUCGGGCGUUCGACUCGCCCCCGGGAGAUUUUUUCCUCGAGCAA [G7C U22G U55C]
CUCUCGUUGGCCAAGUUGGUUUAAGGCGCAAGACUUUAAUUUAUCACUACGAAAACUUGAGAUCGGGCGUUCGACUCGCCCCCGGGAGAUUUUUUCCUCGAGCAA [G7U A9G U55A]
CUCUCGUUAGCCGAGUUGGUUUAAGGCGCAAGACUUUAAUUUAUCACUACGAAAUCUUGAAAUCGGGCGUUCGACGCGCCCCCGGCAGAUUUUUUCCUCGAGCAA [G7U A13G G61A U76G G86C]
CUCUCGCUAGCCAAGUUGGUUUAAGGCGCAAGACUUUAAUUUAUCACUACGAAAUCUUGAGAUCGGGCGUUCGACUCGUCCCCGGGAGAUUUUUUCCUCGAGCAA [G7C C79U]
CUCUCGUUAGCCGAGUAGGUUUAAGGCGCAAGACUUUAAUUUAUCACUACGAAAUCUUGAGAUCGGGCGUUCGACUCGCCCCCGGGAGAUUUUUUCCUCGAGCAA [G7U A13G U17A]
CUCUCGCUAGCCAAGUUGAUUUAAGGCGCAAGACUUUAAUUUAUCACUACGAAAUCUUGAGAUCGGGCGUUGGACUCGCCCCCGGGAGAUUUUUUCCUCGAGCAA [G7C G19A C72G]
CUCUCGCUAGCCAAGUUGGUUUAAGGCGCAAGACUUUAAUUUAUCACUACGAAAUCUUGAGAUCGGGCGUACGACUCGCCCCCGGGAGAUUUUUUCCUCGAGCAA [G7C U71A]
CUCUCGCUAGCCAAGUUGGUUUAAGGCGCAAGACUUUAAUUUAUCACUACGAAAUCUUGAGAUCGGGCGUUCCACUCGCCCCCGGGAGAUUUUUUCCUCGAGCAA [G7C G73C]
CUCUCGCUAGCCAAGUUGGUUUAAGGCGCAAGACUUUAAUUUAUCACUACGAAAUCUGGAGAUCGGGCGUUCGACUCGCCCCCGGGAGAUUUUUUCCUCGAGCAA [G7C U58G]
CUCUCGCUAGCCAAGUUGGUUUAAGGCGAAAGACUUUAAUUUAUCACUACGAAAUCUUGAGAUCGGGCGUUCGACUCGGCCCCGGGAGAUUUUUUCCUCGAGCAA [G7C C29A C79G]
CUCUCGUUUGCCAAGUUGGUUUCAGGCGCAAGAGUUUAAUUUAUCACUACGAAAUCUUGAGAUCAGUCGUUCGACUCGCCCCCGGGAGAUUUUUUCCUCGAGCAA [G7U A9U A23C C34G G65A G67U]
CUCUCGCUAGCCAAGUUGGCUUAAGGGGAAAGACUUUAAUUUAUCACUACGAAAUCUUUAGAUCGGGCGUUCGAGUCGCCCCCGGGAGAUUUUUUCCUCGAGCAA [G7C U20C C27G C29A G59U C75G]
CUCUCGCUAGCCAAGUUGGUUUAAUGCGCAAGACUUUAAUUUAUCACUACGAAAUCUUGAGAUCGGGUGUUCGACUCGCCCCCGGGAGAUUUUUUCCUCGAGCAA [G7C G25U C68U]
CUCUCGCUAGCCAAAUUGCUUUAAUGCGCAAGACUUUAAUUUAUCACUACGAAAUCUUGAGAUCGGGCGUUCGACUCGCCCCCGGGAGAUUUUUUCCUCGAGCAA [G7C G15A G19C G25U]
CUCUCGCUAGCCAAGUUGGUUUAAGGCGCAAGACUUUAAUUUAUCACUACGAAAUGUUGAGAUCGGGCCUUCGACUCGCCCCCGGGAGAUUUUUUCCUCGAGCAA [G7C C56G G69C]
